Ki data for 32 compounds are collected here from patent US7619094B2, “Ketoamides with cyclic P4's as inhibitors of NS3 serine protease of hepatitis C virus” (Schering Corporation, priority 2004, dated 2009).

Where only a bound is given, the exact number is not on record here.

Broadly, the Ki is the dissociation constant of the complex between target and ligand, obtained from inhibition or displacement.

The target of one test is Recombinant heterodimeric HCV NS3/NS4A protease (strain 1a) (Hepatitis C virus genotype 1a, UniProt P27958). Put plainly: HCV continuous assay (spectrophotometric HCV NS3/NS4A serine protease inhibition assay). The class given is biochemical, HCV (strain 1a). The note with it: Table 2; ranges of Ki* values in HCV continuous assay.
With `CC(C)(C)[C@H](NC(=O)N[C@H](CN1CCCC1=O)C(C)(C)C)C(=O)N1C[C@H]2[C@@H]([C@H]1C(=O)NC(CC1CCC1)C(=O)C(N)=O)C2(C)C` (stereo partly drawn) [Compound 5622], the Ki was at most 50 nM.

For `C=CCNC(=O)C(=O)C(CC1CC1)NC(=O)[C@@H]1[C@@H]2[C@H](CN1C(=O)[C@@H](NC(=O)N[C@H](CN1CCCC1=O)C(C)(C)C)C(C)(C)C)C2(C)C` (stereo partly drawn) [Compound 5623], the Ki was at most 50 nM. Take `CCCCC(NC(=O)[C@@H]1[C@@H]2[C@H](CN1C(=O)[C@@H](NC(=O)N[C@H](CN1CCCC1=O)C(C)(C)C)C(C)(C)C)C2(C)C)C(=O)C(N)=O` (stereo partly drawn) [Compound 5624]: the Ki was at most 50 nM. On the same count and under the same terms, next, `CC(C)(C)OC(=O)N1CC[C@H](NC(=O)N[C@H](C(=O)N2C[C@@H]3OC(C)(C)C[C@@H]3[C@H]2C(=O)NC(CC2CC2)C(=O)C(N)=O)C2CCCCC2)C1` (stereo partly drawn) [Compound 5625]: above 50 nM; `CCCC(NC(=O)[C@@H]1[C@@H]2[C@H](CN1C(=O)[C@@H](NC(=O)N[C@H](CN1C(=O)c3ccccc3C1=O)C(C)(C)C)C(C)(C)C)C2(C)C)C(=O)C(N)=O` (stereo partly drawn) [Compound 5626]: at most 50 nM.

In the case of `C=CCNC(=O)C(=O)C(CCC)NC(=O)[C@@H]1[C@@H]2[C@H](CN1C(=O)[C@@H](NC(=O)N[C@H](CN1CCOC1=O)C(C)(C)C)C(C)(C)C)C2(C)C` (stereo partly drawn) [Compound 5627], the Ki was at most 50 nM. Consider `CC(C)(C)[C@H](NC(=O)N[C@H](CN1CCOC1=O)C(C)(C)C)C(=O)N1C[C@H]2[C@@H]([C@H]1C(=O)NC(CC1CCC1)C(=O)C(N)=O)C2(C)C` (stereo partly drawn) [Compound 5628], for which the Ki was at most 50 nM. Take `CC(C)(C)[C@H](NC(=O)N[C@H](CN1CCOC1=O)C(C)(C)C)C(=O)N1C[C@H]2[C@@H]([C@H]1C(=O)NC(CC1CC1)C(=O)C(N)=O)C2(C)C` (stereo partly drawn) [Compound 5629]: the inhibition constant Ki was at most 50 nM. For `C=CCNC(=O)C(=O)C(CCC(F)(F)F)NC(=O)[C@@H]1[C@@H]2[C@H](CN1C(=O)[C@@H](NC(=O)N[C@H](CN1CCOC1=O)C(C)(C)C)C(C)(C)C)C2(C)C` (stereo partly drawn) [Compound 5630], the Ki was at most 50 nM.

Take `C=CCNC(=O)C(=O)C(CCCC)NC(=O)[C@@H]1[C@@H]2[C@H](CN1C(=O)[C@@H](NC(=O)N[C@H](CN1CCOC1=O)C(C)(C)C)C(C)(C)C)C2(C)C` (stereo partly drawn) [Compound 5631]: the Ki is at most 50 nM. As to `C=CCNC(=O)C(=O)C(CCC)NC(=O)[C@@H]1[C@@H]2[C@H](CN1C(=O)[C@@H](NC(=O)N[C@H](CN1CCCCC1=O)C(C)C)C(C)(C)C)C2(C)C` (stereo partly drawn) [Compound 5633], the Ki is at most 50 nM.

Take `C=CCNC(=O)C(=O)C(CC1CC1)NC(=O)[C@@H]1[C@@H]2[C@H](CN1C(=O)[C@@H](NC(=O)N[C@H](CN1C(=O)c3ccccc3C1=O)C(C)(C)C)C(C)(C)C)C2(C)C` (stereo partly drawn) [Compound 5634]: the Ki is at most 50 nM. For `CNC(=O)C(=O)C(CC1CC1)NC(=O)[C@@H]1[C@@H]2[C@H](CN1C(=O)[C@@H](NC(=O)N[C@H](CN1C(=O)c3ccccc3C1=O)C(C)(C)C)C(C)(C)C)C2(C)C` (stereo partly drawn) [Compound 5635], the Ki is at most 50 nM. `C=CCNC(=O)C(=O)C(CC1CC1)NC(=O)[C@@H]1[C@@H]2[C@H](CN1C(=O)[C@@H](NC(=O)N[C@H](CN1C(=O)CCC1=O)C(C)(C)C)C(C)(C)C)C2(C)C` (stereo partly drawn) [Compound 5636]: the Ki is at most 50 nM. Regarding `C=CCNC(=O)C(=O)C(CCC)NC(=O)[C@@H]1[C@@H]2[C@H](CN1C(=O)[C@@H](NC(=O)N[C@H](CN1C(=O)CCC1=O)C(C)(C)C)C(C)(C)C)C2(C)C` (stereo partly drawn) [Compound 5637], the Ki is at most 50 nM. On the same count and under the same terms, in the case of `CC(C)(C)[C@H](NC(=O)N[C@H](CN1C(=O)CCC1=O)C(C)(C)C)C(=O)N1C[C@H]2[C@@H]([C@H]1C(=O)NC(CC1CC1)C(=O)C(N)=O)C2(C)C` (stereo partly drawn) [Compound 5638] it was at most 50 nM; in that of `CC(C)(C)[C@H](NC(=O)N[C@H](CN1C(=O)CCC1=O)C(C)(C)C)C(=O)N1C[C@H]2[C@@H]([C@H]1C(=O)NC(CC1CCC1)C(=O)C(N)=O)C2(C)C` (stereo partly drawn) [Compound 5639], at most 50 nM. The same measure, in the same setting: next, `CNC(=O)C(=O)C(CC1CC1)NC(=O)[C@@H]1[C@@H]2[C@H](CN1C(=O)[C@@H](NC(=O)N[C@H](CN1C(=O)CCC1=O)C(C)(C)C)C(C)(C)C)C2(C)C` (stereo partly drawn) [Compound 5640]: at most 50 nM; `C=CCNC(=O)C(=O)C(CC1CC1)NC(=O)[C@@H]1[C@@H]2[C@H](CN1C(=O)[C@@H](NC(=O)N[C@H](CN1CCCCC1=O)C(C)(C)C)C(C)(C)C)C2(C)C` (stereo partly drawn) [Compound 5641]: at most 50 nM; `C=CCNC(=O)C(=O)C(CC1CCC1)NC(=O)[C@@H]1[C@@H]2[C@H](CN1C(=O)[C@@H](NC(=O)N[C@H](CN1CCCCC1=O)C(C)(C)C)C(C)(C)C)C2(C)C` (stereo partly drawn) [Compound 5642]: at most 50 nM. Take `CC(C)(C)[C@H](NC(=O)N[C@H](CN1CCCCC1=O)C(C)(C)C)C(=O)N1C[C@H]2[C@@H]([C@H]1C(=O)NC(CC1CC1)C(=O)C(N)=O)C2(C)C` (stereo partly drawn) [Compound 5643]: the Ki is at most 50 nM.

On to `C=CCNC(=O)C(=O)C(CCC)NC(=O)[C@@H]1[C@@H]2[C@H](CN1C(=O)[C@@H](NC(=O)N[C@H](CN1CCCCC1=O)C(C)(C)C)C(C)(C)C)C2(C)C` (stereo partly drawn) [Compound 5645], for which the Ki was at most 50 nM. Take `CCCC(NC(=O)[C@@H]1[C@@H]2[C@H](CN1C(=O)[C@@H](NC(=O)N[C@H](CN1C(=O)CCC1=O)C(C)(C)C)C(C)(C)C)C2(C)C)C(=O)C(N)=O` (stereo partly drawn) [Compound 5646]: the inhibition constant Ki is at most 50 nM. Consider `C=CCNC(=O)C(=O)C(CCCC)NC(=O)[C@@H]1[C@@H]2[C@H](CN1C(=O)[C@@H](NC(=O)N[C@H](CN1C(=O)CCC1=O)C(C)(C)C)C(C)(C)C)C2(C)C` (stereo partly drawn) [Compound 5647], for which the Ki is at most 50 nM.

As to `CC(C)(C)[C@H](NC(=O)N[C@H](Cn1ccccc1=O)C(C)(C)C)C(=O)N1C[C@H]2[C@@H]([C@H]1C(=O)NC(CC1CC1)C(=O)C(N)=O)C2(C)C` (stereo partly drawn) [Compound 5649], the Ki was at most 50 nM. As for `C=CCNC(=O)C(=O)C(CCC)NC(=O)[C@@H]1[C@@H]2[C@H](CN1C(=O)[C@@H](NC(=O)N[C@H](Cn1ccccc1=O)C(C)(C)C)C(C)(C)C)C2(C)C` (stereo partly drawn) [Compound 5650], the Ki was at most 50 nM. Regarding `C=CCNC(=O)C(=O)C(CCCC)NC(=O)[C@@H]1[C@@H]2[C@H](CN1C(=O)[C@@H](NC(=O)N[C@H](Cn1ccccc1=O)C(C)(C)C)C(C)(C)C)C2(C)C` (stereo partly drawn) [Compound 5651], the Ki was at most 50 nM. For `C=CCNC(=O)C(=O)C(CCCC)NC(=O)[C@@H]1[C@@H]2[C@H](CN1C(=O)[C@@H](NC(=O)N[C@H](CN1CCCCC1=O)C(C)(C)C)C(C)(C)C)C2(C)C` (stereo partly drawn) [Compound 5652], the Ki is at most 50 nM. The same measure, in the same setting: in the case of `CCCC(NC(=O)[C@@H]1[C@@H]2[C@H](CN1C(=O)[C@@H](NC(=O)N[C@H](CN1C(=O)c3ccccc3C1=O)C(C)(C)C)C(C)(C)C)C2(C)C)C(=O)C(=O)NCC` (stereo partly drawn) [Compound 5653] it was at most 50 nM. Regarding `C#CCCC(NC(=O)[C@@H]1[C@@H]2[C@H](CN1C(=O)[C@@H](NC(=O)N[C@H](CN1CCCCC1=O)C(C)(C)C)C(C)(C)C)C2(C)C)C(=O)C(=O)NCC=C` (stereo partly drawn) [Compound 5654], the Ki is at most 50 nM. For `C=CCNC(=O)C(=O)C(CC1CC1)NC(=O)[C@@H]1[C@@H]2[C@H](CN1C(=O)[C@@H](NC(=O)N[C@H](Cn1ccccc1=O)C(C)(C)C)C(C)(C)C)C2(C)C` (stereo partly drawn) [Compound 5655], the Ki is at most 50 nM. Still for that read-out and setting: next, `C=CCNC(=O)C(=O)C(CC1CC1)NC(=O)[C@@H]1[C@@H]2[C@H](CN1C(=O)[C@@H](NC(=O)N[C@@H](CC(C)C)CN1CCCNC1=O)C(C)(C)C)C2(C)C` (stereo partly drawn) [Compound 5656]: above 50 nM.

Staying with this test, now noted: Table 4; Ki* values.
On to `C=CCNC(=O)C(=O)C(CCCC)NC(=O)[C@@H]1[C@@H]2[C@H](CN1C(=O)[C@@H](NC(=O)N[C@H](CN1CCCCC1=O)C(C)(C)C)C(C)(C)C)C2(C)C` (stereo partly drawn) [Compound 5652], for which the Ki was found to be 19 nM.
